Laboratory results taken from article PMC12136788.
The other results are listed elsewhere or left out.

T1: UNK ZnF1-3 (human, UniProt Q9C0B0 31-174)
T1 sequence: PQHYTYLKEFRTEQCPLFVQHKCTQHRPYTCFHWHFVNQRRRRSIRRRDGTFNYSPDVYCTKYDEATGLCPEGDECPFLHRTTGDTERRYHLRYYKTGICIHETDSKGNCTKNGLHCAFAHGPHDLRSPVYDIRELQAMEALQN

B1: 202488984_202490807_1239_3pUTR_ENSG00000155755_ENST00000286196|human|control|control (ssRNA)
RNA: GGGAGUUCUACAGUCCGACGAUCGAGGCUUUGAUUUCUUUCUCUUUAUCAGGAUAUUCUUCCACCUCUGAGGAGAACAUUAACUCUUCACUAAGAUCCAUGCCUGGCCUAUAAGACAAAAAUAGCCAAGAUAAUCCAACCAGACAACAGAGGAUUGAGCAUCA
B2: chr11:82972979:82972980:-_ENSG00000137500_ENST00000527495|hu_mus|motif|central (ssRNA)
RNA: GGGAGUUCUACAGUCCGACGAUCGCAGCAGCGGCAGCAUCAUCGUCAGUUCUCCUUCCAGAACCUAUAAAACCCCAAUGCGGUCGCCAAGCAAGUGAACACUGAGGCUGCAAGAUAACGAAUUGUUUCAAGUUUGCUCGACUCCAACAGAGGAUUGAGCAUCA
B3: chr7:141438946:141438947:+_ENSG00000106028_ENST00000265304|hu_mus|hu_hu_hu_mus_True|18_78 (ssRNA)
RNA: GGGAGUUCUACAGUCCGACGAUCGACGAAAUACCUGUAACACAGGUCUUCGAAACAUUCUAUUUUCUUUUCUUACAACCUAAUCUUUAGGCUUUUCCUAAAGGAAAGAAAGAAAAGGCCCAGCCACUAAAUCAAGAAACUACACAACAGAGGAUUGAGCAUCA
B4: chr22:19452774:19452775:-_ENSG00000070010_ENST00000399523|hu_hu|hu_hu_hu_mus_False|8_28 (ssRNA)
RNA: GGGAGUUCUACAGUCCGACGAUCCUUCUCAUUGUAGUUGAUAGCAAUCACAUCUCCAGUCGUCAGACAGGCGAAGUUUCUCAAUGCAUUUUCUAAUACCGCUUUAGGGUUGGUGAUAUCCAGGAAGUCAGGGCUCUGAGGCUGCAACAGAGGAUUGAGCAUCA
B5: chr1:39494564:39494565:+_ENSG00000168653_ENST00000372967|hu_hu|hu_hu_hu_mus_True|1_78 (ssRNA)
RNA: GGGAGUUCUACAGUCCGACGAUCAUGCAUUCGCCUCAUCGUUUUGUACCGAAGCAAACACUCUACGAAGUCAUCGAACUCUAUCUUGCACUCCUUUUUCGCCCGGGUCCCACCGAUCCCGUGUGCACACUCUAUCCAUUCUUUCAACAGAGGAUUGAGCAUCA
B6: chr5:52541547:52541548:-_ENSMUSG00000029169_ENSMUST00000031061|mus_mus|motif|central (ssRNA)
RNA: GGGAGUUCUACAGUCCGACGAUCUAUGGAGACAGAAGAUUGUGUCUACAGAAGCACAAGUUGUAACAUUUCACAACUUCGGAAAGGAAUGUCAACAAUUACAACGAUCAUGCAUACCAUGGUCGAUAAUCACAUUUUAGAAGCCAACAGAGGAUUGAGCAUCA

target: T1, UNK ZnF1-3; experiment: nsRBNS (natural sequence RNA bind-n-seq); RBNS binding buffer (assumed for nsRBNS): 25 mM Tris pH 7.5, 150 mM KCl, 3 mM MgCl2, 0.01% Triton X-100, 500 ug/ml BSA, 20 U/ml SUPERase-In, 4 C; UNK is unkempt and MSI1 is Musashi-1; names of the RNAs are library labels; protein concentration not given here; high values mean tight binding

Binder | binding signal [enrichment R]
B1 | 1.52
B2 | 1.32
B3 | 0.824
B4 | 0.906
B5 | 0.723
B6 | 1.24
